Changes are numbered by the printed parent chain; changes in the protein carry UniProt numbers. Some of the results follow.
T1: RBFOX1 RRM (Homo sapiens, UniProt Q9NWB1 109-208)
T1 sequence: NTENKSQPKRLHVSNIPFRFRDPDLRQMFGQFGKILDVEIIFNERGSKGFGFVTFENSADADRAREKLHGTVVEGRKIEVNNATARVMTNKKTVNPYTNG

B1: GGACAGG (DNA:RNA)
RNA: GGGAGACCGGAAUUCAGAUUGUCCGGACAGGUUAAAUCCCGUCGUAGCCACCA
DNA 1: CAATCTGAATTCCGGTCTCCC
DNA 2: TGGTGGCTACGACGGGATT
B2: GGGAUGG (DNA:RNA)
RNA: B1 RNA with A27G, C28A, A29U
DNA 1: CAATCTGAATTCCGGTCTCCC
DNA 2: TGGTGGCTACGACGGGATT
B3: CGUGUGC (DNA:RNA)
RNA: B1 RNA with G25C, A27U, C28G, A29U, G31C
DNA 1: CAATCTGAATTCCGGTCTCCC
DNA 2: TGGTGGCTACGACGGGATT
B4: CGUGAAC (DNA:RNA)
RNA: B1 RNA with G25C, A27U, C28G, G30A, G31C
DNA 1: CAATCTGAATTCCGGTCTCCC
DNA 2: TGGTGGCTACGACGGGATT
B5: AGCUGCA (DNA:RNA)
RNA: B1 RNA with G25A, A27C, C28U, A29G, G30C, G31A
DNA 1: CAATCTGAATTCCGGTCTCCC
DNA 2: TGGTGGCTACGACGGGATT
B6: AGUCAGC (DNA:RNA)
RNA: B1 RNA with G25A, A27U, G31C
DNA 1: CAATCTGAATTCCGGTCTCCC
DNA 2: TGGTGGCTACGACGGGATT
B7: CUAGAGC (DNA:RNA)
RNA: B1 RNA with G25C, G26U, C28G, G31C
DNA 1: CAATCTGAATTCCGGTCTCCC
DNA 2: TGGTGGCTACGACGGGATT
B8: ACCAACC (DNA:RNA)
RNA: B1 RNA with G25A, G26C, A27C, C28A, G30C, G31C
DNA 1: CAATCTGAATTCCGGTCTCCC
DNA 2: TGGTGGCTACGACGGGATT
B9: UCUGGAC (DNA:RNA)
RNA: GGGAGACCGGAAUUCAGAUUGUCCUCUGGACUUAAAUCCCGUCGUAGCCACCA
DNA 1: CAATCTGAATTCCGGTCTCCC
DNA 2: TGGTGGCTACGACGGGATT
B10: ACCGAAA (DNA:RNA)
RNA: B9 RNA with U25A, U27C, G29A, C31A
DNA 1: CAATCTGAATTCCGGTCTCCC
DNA 2: TGGTGGCTACGACGGGATT
B11: GCAGCCC (DNA:RNA)
RNA: B9 RNA with U25G, U27A, G29C, A30C
DNA 1: CAATCTGAATTCCGGTCTCCC
DNA 2: TGGTGGCTACGACGGGATT
B12: AACACAU (DNA:RNA)
RNA: B9 RNA with U25A, C26A, U27C, G28A, G29C, C31U
DNA 1: CAATCTGAATTCCGGTCTCCC
DNA 2: TGGTGGCTACGACGGGATT
B13: UCUGAGC (DNA:RNA)
RNA: B9 RNA with G29A, A30G
DNA 1: CAATCTGAATTCCGGTCTCCC
DNA 2: TGGTGGCTACGACGGGATT
B14: ACCCACA (DNA:RNA)
RNA: B1 RNA with G25A, G26C, A27C, G30C, G31A
DNA 1: CAATCTGAATTCCGGTCTCCC
DNA 2: TGGTGGCTACGACGGGATT
B15: GUACACC (DNA:RNA)
RNA: B1 RNA with G26U, G30C, G31C
DNA 1: CAATCTGAATTCCGGTCTCCC
DNA 2: TGGTGGCTACGACGGGATT
B16: GGCUUGG (DNA:RNA)
RNA: B1 RNA with A27C, C28U, A29U
DNA 1: CAATCTGAATTCCGGTCTCCC
DNA 2: TGGTGGCTACGACGGGATT
B17: CGGUGAU (DNA:RNA)
RNA: B9 RNA with U25C, C26G, U27G, G28U, C31U
DNA 1: CAATCTGAATTCCGGTCTCCC
DNA 2: TGGTGGCTACGACGGGATT
B18: UUUUCCU (DNA:RNA)
RNA: B9 RNA with C26U, G28U, G29C, A30C, C31U
DNA 1: CAATCTGAATTCCGGTCTCCC
DNA 2: TGGTGGCTACGACGGGATT
B19: AACGUCG (DNA:RNA)
RNA: B1 RNA with G25A, G26A, A27C, C28G, A29U, G30C
DNA 1: CAATCTGAATTCCGGTCTCCC
DNA 2: TGGTGGCTACGACGGGATT
B20: CAGCUUA (DNA:RNA)
RNA: B1 RNA with G25C, G26A, A27G, A29U, G30U, G31A
DNA 1: CAATCTGAATTCCGGTCTCCC
DNA 2: TGGTGGCTACGACGGGATT
B21: GGAAAAG (DNA:RNA)
RNA: B1 RNA with C28A, G30A
DNA 1: CAATCTGAATTCCGGTCTCCC
DNA 2: TGGTGGCTACGACGGGATT
B22: CAUCAGU (DNA:RNA)
RNA: B1 RNA with G25C, G26A, A27U, G31U
DNA 1: CAATCTGAATTCCGGTCTCCC
DNA 2: TGGTGGCTACGACGGGATT
B23: GUUACCG (DNA:RNA)
RNA: B1 RNA with G26U, A27U, C28A, A29C, G30C
DNA 1: CAATCTGAATTCCGGTCTCCC
DNA 2: TGGTGGCTACGACGGGATT
B24: UUAACAU (DNA:RNA)
RNA: B9 RNA with C26U, U27A, G28A, G29C, C31U
DNA 1: CAATCTGAATTCCGGTCTCCC
DNA 2: TGGTGGCTACGACGGGATT
B25: CUUGCAG (DNA:RNA)
RNA: B9 RNA with U25C, C26U, G29C, C31G
DNA 1: CAATCTGAATTCCGGTCTCCC
DNA 2: TGGTGGCTACGACGGGATT
B26: CCUUCUC (DNA:RNA)
RNA: B9 RNA with U25C, G28U, G29C, A30U
DNA 1: CAATCTGAATTCCGGTCTCCC
DNA 2: TGGTGGCTACGACGGGATT
B27: AAGCGUG (DNA:RNA)
RNA: B1 RNA with G25A, G26A, A27G, A29G, G30U
DNA 1: CAATCTGAATTCCGGTCTCCC
DNA 2: TGGTGGCTACGACGGGATT
B28: ACAGCCC (DNA:RNA)
RNA: B9 RNA with U25A, U27A, G29C, A30C
DNA 1: CAATCTGAATTCCGGTCTCCC
DNA 2: TGGTGGCTACGACGGGATT
B29: UGUGGUU (DNA:RNA)
RNA: B9 RNA with C26G, A30U, C31U
DNA 1: CAATCTGAATTCCGGTCTCCC
DNA 2: TGGTGGCTACGACGGGATT
B30: AGCUAAA (DNA:RNA)
RNA: B1 RNA with G25A, A27C, C28U, G30A, G31A
DNA 1: CAATCTGAATTCCGGTCTCCC
DNA 2: TGGTGGCTACGACGGGATT
B31: UGGAAGA (DNA:RNA)
RNA: B1 RNA with G25U, A27G, C28A, G31A
DNA 1: CAATCTGAATTCCGGTCTCCC
DNA 2: TGGTGGCTACGACGGGATT

The binders below were run against T1, RBFOX1 RRM (assay: EMSA; HiTS-Eq, 1 nM pool, 10 min; buffer printed only for the single-RNA assays: 10 mM Tris pH 7.5, 150 mM NaCl, 3.4 mM EDTA, 0.001% NP-40, 30 C). Details: tags: His6 N-terminal (pET28a); label: 5' 32P.
In short: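 These values rest on relative association constants, computed from read-count changes of each RNA species versus the control reaction and normalised to the cognate motif. Reads came from free RNA recovered by 8% native PAGE after purified RbFox RRM (wild type or mutant) at increasing concentrations was equilibrated for 10 min in 50 µL with 1 nM of a 5′-radiolabelled pool with 7 randomized nucleotides and DNA-annealed flanks.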

Binder	binding signal
B1	0.013 KA relative to UGCAUGU
B2	0.027 KA relative to UGCAUGU
B3	0.0146 KA relative to UGCAUGU
B4	0.0095 KA relative to UGCAUGU
B5	0.0174 KA relative to UGCAUGU
B6	0.00907 KA relative to UGCAUGU
B7	0.0075 KA relative to UGCAUGU
B8	0.000546 KA relative to UGCAUGU
B9	0.00304 KA relative to UGCAUGU
B10	0.00248 KA relative to UGCAUGU
B11	0.0078 KA relative to UGCAUGU
B12	0.00186 KA relative to UGCAUGU
B13	0.0172 KA relative to UGCAUGU
B14	0.000933 KA relative to UGCAUGU
B15	0.00405 KA relative to UGCAUGU
B16	0.0242 KA relative to UGCAUGU

Binder	binding signal
B17	0.0121 KA relative to UGCAUGU
B18	0.0103 KA relative to UGCAUGU
B19	0.00665 KA relative to UGCAUGU
B20	0.00217 KA relative to UGCAUGU
B21	0.0116 KA relative to UGCAUGU
B22	0.00703 KA relative to UGCAUGU
B23	0.0115 KA relative to UGCAUGU
B24	0.000663 KA relative to UGCAUGU
B25	0.0118 KA relative to UGCAUGU
B26	0.00669 KA relative to UGCAUGU
B27	0.0169 KA relative to UGCAUGU
B28	0.0021 KA relative to UGCAUGU
B29	0.0316 KA relative to UGCAUGU
B30	0.00178 KA relative to UGCAUGU
B31	0.0212 KA relative to UGCAUGU
